# Laboratory results published in the supplement of paper PMC3334620.
# The full ranking holds about 33,000 sequences; the median of “E-score (-0.5 to 0.5)” is about -0.054, and the highest 2% start at about 0.39. Some of the results follow.
# Molecular target: Ylr278c (UniProt Q05854)
# Test: PBM E-score (8-mer binding enrichment) (E-score (-0.5 to 0.5)); higher = stronger / more preferred TF binding; most listed sequences are background and not binding sites
# Conditions: protein concentration: 200 nM; construct: GST-DNA-binding domain
# How it was run: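 Yeast transcription factors carrying a GST tag, as full-length proteins or DNA-binding domains, were produced by PURExpress in vitro transcription/translation. About 100-200 nM protein was applied to universal all-10-mer Agilent arrays, double-stranded by primer extension on fresh or once-stripped slides. Bound protein was detected with fluorescent anti-GST, and scans were normalised with masliner. The Universal PBM Analysis Suite gave each ungapped eight-base word, pooled with its reverse complement, an E-score, a modified Wilcoxon-Mann-Whitney statistic.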
row,Sequence,PBM E-score
1,GAGGCGAA,-0.0583
2,CGAGGGTC,0.124
3,GGCCTGAC,0.117
4,ACATTAGG,-0.22
5,CACTGGAA,-0.272
6,GACAAGCA,-0.0953
7,ATTCTTTC,0.0944
8,GAGCGAGA,0.263
9,AAGCTCGT,-0.288
10,ACTGGAAA,-0.0873
11,AAGCACCA,-0.265
12,AATGCCCG,0.213
13,ACCAATAG,-0.0921
14,CCTCTGCC,-0.303
15,AGTGCTTG,-0.191
16,CGAATGTC,0.101
17,ATTTGCCG,0.308
18,CTCTCCTA,-0.103
19,AACATACG,0.0888
20,CGAGTTTC,0.114
21,ACGGCGTG,0.122
22,AGTGGTTG,-0.0668
23,GAAGGACC,-0.0377
24,GAATAGCC,-0.0185
25,AACAGCGA,-0.162

row,Sequence,PBM E-score
1,ATGAACAA,-0.152
2,AATAGGCA,-0.0236
3,GAGGCTAC,-0.142
4,GGACGCGA,-0.0183
5,AGCTGTAT,-0.189
6,ACCTTACC,0.02
7,TAGCAACA,-0.087
8,CCGCTAGC,0.0837
9,ACTGTAGG,0.0177
10,ACGAAGGA,-0.0846
11,AAAGGTCG,-0.0967
12,TCATTAAA,0.109
13,CTTACGTC,-0.223
14,TCTTAAAA,-0.228
15,CTTAGTAA,0.0152
16,GTTATGGA,-0.0754
17,TCCATGCA,0.124
18,ACTCTACA,-0.252
19,AGCACGCT,-0.187
20,CACTCCGA,0.454
21,AACCAGGC,-0.0994
22,TCGTGAGA,0.0544
23,CTCGCACC,-0.0433
24,AAAGGCGC,-0.072
25,TCAAGTCA,-0.11

row,Sequence,PBM E-score
1,GTCCGGCA,0.41
2,ACGTTTTC,-0.112
3,AAGAATTC,0.00711
4,GTCTGAAC,-0.226
5,AAGGCGAA,0.00122
6,ATTAAAAA,0.0584
7,AGGCAACC,-0.0802
8,ATATGAAC,-0.153
9,CCAGTGAC,-0.227
10,ACCGGCAT,0.353
11,GTCACGGA,0.401
12,CAGATTGG,-0.0595
13,AAGAAGTA,-0.0639
14,AAGATACA,-0.189
15,ATATGGGG,-0.00676
16,AGAGAGCG,-0.0399
17,CACCAAGC,-0.11
18,ATGGGGGC,-0.219
19,CAGTCCCC,-0.278
20,GGTCTGTA,0.0393
21,CACAAATG,-0.129
22,ACTAGACG,-0.202
23,GCGGACCC,0.354
24,GTACGGCA,0.125
25,CAACGGAA,0.334

row,Sequence,PBM E-score
1,CCAACCGG,0.25
2,AGTTCCTC,-0.00062
3,TGGACCAA,-0.022
4,ATAGACAC,-0.255
5,AGATACAC,-0.0474
6,ACCGGGCT,0.223
7,GCCGATCA,0.188
8,GATTCGAA,0.102
9,ACTAATTA,-0.09
10,CACCATCC,-0.126
11,CATCACAC,-0.096
12,AGATTGCT,-0.142
13,AAATCAGC,-0.00055
14,GAACAATC,0.0629
15,CATGCAGG,-0.21
16,CTTCGCCC,0.0298
17,AGTGATGC,-0.147
18,GTTGAATA,-0.0893
19,AAATGAGC,-0.0373
20,ATATCCAC,-0.0464
21,CGTACCTC,-0.0106
22,ATTCGGCG,0.286
23,AGGCGTAT,-0.308
24,CAACGCAA,-0.0281
25,GGCGAACA,0.0518

row,Sequence,PBM E-score
1,ACATGGGG,-0.0148
2,CCCGGCGG,0.396
3,CGTCGTCC,0.0623
4,GCTAACAC,-0.116
5,CCCATAAG,0.0166
6,ACCCTAGG,-0.298
7,AGCCTCCT,-0.196
8,AATGGCTA,-0.126
9,GGGTATGA,0.00815
10,CCAAAAGA,-0.0991
11,AGGCGAGC,-0.237
12,CACCGACG,0.277
13,GTTAGCAA,-0.138
14,CTGCCGCC,-0.0057
15,GTTGCCTA,0.0336
16,CAAGTTGA,-0.0934
17,GACCATCA,0.0652
18,AAAGTTAA,-0.0277
19,AAGTAAGT,-0.0844
20,AACGGCAG,0.026
21,ACTTATAC,0.00673
22,ATTGTGTC,-0.0502
23,CAATTCTC,0.0454
24,GATCTCGC,0.0872
25,ATACCGCG,0.242

row,Sequence,PBM E-score
1,ATTTATTG,-0.0635
2,ATAGAAAG,-0.0777
3,GTTGGACA,-0.22
4,GAGCGCTC,0.0431
5,TACTATGA,-0.154
6,AGTCGGAC,0.366
7,CCGATTTC,0.303
8,AACTTCTC,-0.0643
9,CCCCGCCC,0.33
10,ATACCAAA,-0.0676
11,ATGCACTC,-0.116
12,ACAGATAG,-0.155
13,GCTGGGTA,-0.198
14,AACAGTAT,-0.192
15,ACTTATGG,-0.0758
16,CCATTGAG,-0.0609
17,GGAGTTTA,0.332
18,AACGTTCC,0.035
19,CTTGAGAA,-0.386
20,ATTTCGTA,-0.062
21,GCTAGTGA,-0.236
22,CCGGTTAG,0.293
23,CGGCGCAG,0.219
24,ACCCTCAT,-0.234
25,AGTACCAC,-0.127

row,Sequence,PBM E-score
1,AACGAGTG,-0.145
2,TAACAGGA,-0.129
3,ATACTCCG,0.487
4,GCCGATAC,0.298
5,CGAAATGC,0.0951
6,CACGCATC,0.112
7,CAACAATA,-0.0505
8,ACCCCCCT,-0.339
9,TACTGTCA,-0.188
10,AGGATTCA,-0.154
11,CTCCAAGA,-0.206
12,CTGGAGTC,-0.0908
13,CTACCGAA,0.0419
14,CGCCTAAC,0.0448
15,GGCTAGTA,-0.0152
16,AGTTAGGA,0.0174
17,ACTTCCCG,0.229
18,ACCCTCGT,-0.0641
19,AATTGCGC,0.255
20,CATGGTAA,-0.208
21,ACGTATAC,-0.157
22,CTTTCCAC,0.132
